According to PMC8548262:
No constants are given. Whether binding was seen depends on the method and setting. In cells and extracts the contact can be indirect. Some results given as binding are weak or reduced against the parent protein; the word gives no strength. For some assays here: Tags and fused reporters may be left off the sequences shown.

Chains of the proteins cited; added tags and fusions are not shown.
UniProt O15550: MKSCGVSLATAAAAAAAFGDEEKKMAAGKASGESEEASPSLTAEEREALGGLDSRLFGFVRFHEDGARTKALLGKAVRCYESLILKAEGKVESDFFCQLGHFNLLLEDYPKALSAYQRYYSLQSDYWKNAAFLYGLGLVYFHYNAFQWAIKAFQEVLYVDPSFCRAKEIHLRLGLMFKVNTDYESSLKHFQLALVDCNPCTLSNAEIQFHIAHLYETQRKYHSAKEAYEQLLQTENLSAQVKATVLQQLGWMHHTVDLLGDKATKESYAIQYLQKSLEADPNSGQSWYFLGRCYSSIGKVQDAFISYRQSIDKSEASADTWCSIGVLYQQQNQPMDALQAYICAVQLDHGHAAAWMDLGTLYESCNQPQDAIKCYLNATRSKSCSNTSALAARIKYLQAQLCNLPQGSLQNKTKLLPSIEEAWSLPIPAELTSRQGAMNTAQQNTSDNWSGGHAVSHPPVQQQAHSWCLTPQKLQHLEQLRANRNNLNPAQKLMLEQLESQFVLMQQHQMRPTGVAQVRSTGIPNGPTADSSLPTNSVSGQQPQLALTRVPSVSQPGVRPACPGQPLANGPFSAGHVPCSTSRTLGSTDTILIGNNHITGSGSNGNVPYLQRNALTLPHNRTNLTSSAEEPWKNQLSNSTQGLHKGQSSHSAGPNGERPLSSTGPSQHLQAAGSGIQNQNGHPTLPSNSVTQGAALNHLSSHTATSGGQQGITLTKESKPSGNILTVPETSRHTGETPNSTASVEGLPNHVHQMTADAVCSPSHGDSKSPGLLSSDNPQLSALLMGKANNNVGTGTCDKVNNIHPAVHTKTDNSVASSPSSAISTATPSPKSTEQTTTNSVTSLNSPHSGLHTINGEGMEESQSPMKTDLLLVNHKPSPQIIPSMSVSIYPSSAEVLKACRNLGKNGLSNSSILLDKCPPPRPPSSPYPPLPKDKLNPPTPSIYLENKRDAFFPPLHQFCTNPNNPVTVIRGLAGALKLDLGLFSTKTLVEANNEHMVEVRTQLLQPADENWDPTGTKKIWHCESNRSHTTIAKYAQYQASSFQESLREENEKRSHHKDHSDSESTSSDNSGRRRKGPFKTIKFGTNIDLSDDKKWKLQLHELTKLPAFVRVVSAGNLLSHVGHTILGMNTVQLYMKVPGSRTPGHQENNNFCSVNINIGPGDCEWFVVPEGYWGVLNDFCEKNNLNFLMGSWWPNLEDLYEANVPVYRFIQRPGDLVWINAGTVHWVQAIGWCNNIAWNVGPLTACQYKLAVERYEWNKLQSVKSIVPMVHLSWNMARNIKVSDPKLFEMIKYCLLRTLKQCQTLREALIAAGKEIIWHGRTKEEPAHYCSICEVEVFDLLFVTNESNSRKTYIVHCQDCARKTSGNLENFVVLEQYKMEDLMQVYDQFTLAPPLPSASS
UniProt Q86XN7: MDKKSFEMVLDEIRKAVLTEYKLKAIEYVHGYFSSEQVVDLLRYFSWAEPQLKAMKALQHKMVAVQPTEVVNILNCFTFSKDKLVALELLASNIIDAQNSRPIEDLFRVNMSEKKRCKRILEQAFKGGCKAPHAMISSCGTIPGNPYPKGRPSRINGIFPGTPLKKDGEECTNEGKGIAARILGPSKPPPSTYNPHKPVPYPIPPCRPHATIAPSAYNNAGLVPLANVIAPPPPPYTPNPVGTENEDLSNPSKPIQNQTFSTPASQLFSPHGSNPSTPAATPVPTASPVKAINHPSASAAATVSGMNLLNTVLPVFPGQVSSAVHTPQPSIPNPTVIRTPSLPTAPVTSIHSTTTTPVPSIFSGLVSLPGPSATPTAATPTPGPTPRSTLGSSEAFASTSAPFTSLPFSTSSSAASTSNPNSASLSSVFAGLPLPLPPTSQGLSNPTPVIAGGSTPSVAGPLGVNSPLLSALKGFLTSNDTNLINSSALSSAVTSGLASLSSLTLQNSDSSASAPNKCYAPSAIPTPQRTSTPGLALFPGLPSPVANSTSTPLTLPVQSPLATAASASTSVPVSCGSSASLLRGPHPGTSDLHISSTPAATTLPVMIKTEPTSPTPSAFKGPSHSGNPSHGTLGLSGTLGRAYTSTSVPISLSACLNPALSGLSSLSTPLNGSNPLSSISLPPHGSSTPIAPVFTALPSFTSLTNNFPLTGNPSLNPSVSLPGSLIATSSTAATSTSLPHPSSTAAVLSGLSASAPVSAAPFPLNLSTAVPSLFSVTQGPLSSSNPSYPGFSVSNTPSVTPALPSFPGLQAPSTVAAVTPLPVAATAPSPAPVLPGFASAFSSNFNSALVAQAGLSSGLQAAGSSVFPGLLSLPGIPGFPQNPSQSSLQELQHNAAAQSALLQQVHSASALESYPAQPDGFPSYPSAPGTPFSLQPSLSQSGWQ
UniProt Q15291: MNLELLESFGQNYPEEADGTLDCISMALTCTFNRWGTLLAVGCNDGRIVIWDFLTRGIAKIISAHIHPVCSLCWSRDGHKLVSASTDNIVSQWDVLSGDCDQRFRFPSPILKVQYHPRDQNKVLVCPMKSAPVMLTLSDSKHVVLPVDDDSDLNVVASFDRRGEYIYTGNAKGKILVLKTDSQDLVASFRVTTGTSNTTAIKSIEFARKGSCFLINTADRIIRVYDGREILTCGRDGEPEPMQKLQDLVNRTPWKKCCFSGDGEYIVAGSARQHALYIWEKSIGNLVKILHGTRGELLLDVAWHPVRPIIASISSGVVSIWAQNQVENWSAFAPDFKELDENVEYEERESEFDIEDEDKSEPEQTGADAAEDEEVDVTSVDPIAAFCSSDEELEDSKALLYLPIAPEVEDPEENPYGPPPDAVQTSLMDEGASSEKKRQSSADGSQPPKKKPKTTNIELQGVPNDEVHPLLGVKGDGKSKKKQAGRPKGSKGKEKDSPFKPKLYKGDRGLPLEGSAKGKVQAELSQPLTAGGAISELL

T1: FLAG-mTET2-N1041 (mouse) (UniProt Q4JK59)
T1 sequence: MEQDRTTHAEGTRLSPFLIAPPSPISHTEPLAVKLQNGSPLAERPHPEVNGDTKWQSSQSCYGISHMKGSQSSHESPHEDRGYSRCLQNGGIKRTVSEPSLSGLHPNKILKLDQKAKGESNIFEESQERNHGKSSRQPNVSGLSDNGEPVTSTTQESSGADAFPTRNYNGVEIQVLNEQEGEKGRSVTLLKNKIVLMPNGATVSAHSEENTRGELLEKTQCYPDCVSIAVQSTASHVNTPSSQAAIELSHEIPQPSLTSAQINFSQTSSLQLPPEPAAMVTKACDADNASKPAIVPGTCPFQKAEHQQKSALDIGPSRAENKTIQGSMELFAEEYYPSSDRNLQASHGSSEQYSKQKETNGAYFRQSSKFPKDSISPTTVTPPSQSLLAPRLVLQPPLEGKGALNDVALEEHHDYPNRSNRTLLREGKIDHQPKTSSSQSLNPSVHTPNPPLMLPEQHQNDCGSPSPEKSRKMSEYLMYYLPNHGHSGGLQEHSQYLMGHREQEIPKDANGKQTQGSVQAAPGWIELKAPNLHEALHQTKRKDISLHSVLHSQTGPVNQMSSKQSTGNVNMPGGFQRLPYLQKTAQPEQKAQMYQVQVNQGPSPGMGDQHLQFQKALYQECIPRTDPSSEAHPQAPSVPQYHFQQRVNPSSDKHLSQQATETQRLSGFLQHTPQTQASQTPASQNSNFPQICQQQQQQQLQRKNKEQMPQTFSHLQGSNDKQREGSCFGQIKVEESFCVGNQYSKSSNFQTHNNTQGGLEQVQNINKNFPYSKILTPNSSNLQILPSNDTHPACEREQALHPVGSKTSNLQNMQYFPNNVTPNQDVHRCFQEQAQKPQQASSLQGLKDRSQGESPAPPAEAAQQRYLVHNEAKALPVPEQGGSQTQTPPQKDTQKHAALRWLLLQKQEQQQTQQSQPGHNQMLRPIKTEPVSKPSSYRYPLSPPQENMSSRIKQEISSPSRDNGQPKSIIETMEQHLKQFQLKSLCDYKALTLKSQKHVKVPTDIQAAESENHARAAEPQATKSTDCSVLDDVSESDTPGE

T2: FLAG-mTET2-N500 (mouse) (UniProt Q4JK59)
T2 sequence: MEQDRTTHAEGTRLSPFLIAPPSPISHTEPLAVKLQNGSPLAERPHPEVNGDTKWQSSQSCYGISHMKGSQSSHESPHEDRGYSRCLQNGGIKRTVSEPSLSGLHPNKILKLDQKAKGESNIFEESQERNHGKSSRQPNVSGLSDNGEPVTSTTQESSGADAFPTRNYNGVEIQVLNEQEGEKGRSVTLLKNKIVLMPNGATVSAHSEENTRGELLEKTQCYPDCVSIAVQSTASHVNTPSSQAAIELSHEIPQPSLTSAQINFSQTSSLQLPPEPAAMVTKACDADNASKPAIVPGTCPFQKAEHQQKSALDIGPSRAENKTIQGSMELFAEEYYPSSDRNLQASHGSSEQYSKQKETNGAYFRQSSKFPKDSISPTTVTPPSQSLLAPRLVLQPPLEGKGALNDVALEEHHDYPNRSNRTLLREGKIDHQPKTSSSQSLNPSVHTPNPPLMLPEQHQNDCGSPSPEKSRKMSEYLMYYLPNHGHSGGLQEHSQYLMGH


Experiments:
[1] = molecular target: FLAG-UTX (UniProt O15550); assay: co-IP; FLAG IP from nuclear extracts of FLAG-UTX HEK293 cells, Western blot; cells with a FLAG-tag expressing plasmid as IP control
[2] = molecular target: FLAG-UTX (UniProt O15550); assay: co-sedimentation; combined eluates of two large scale FLAG affinity purifications of FLAG-UTX layered over a 20-50% glycerol gradient, 48 h at 35,000 rpm, 4°C; 33 fractions analysed by Western blot
[3] = molecular target: FLAG-mTET2-FL (mouse) (UniProt Q4JK59); assay: co-IP; HEK293 cells (for TET2 DSBH2 also PROSER1 KO cells) transiently transfected with FLAG-tagged mouse or human TET2 constructs; FLAG IP (FLAG magnetic beads) from total cell lysates, Western blot for endogenous PROSER1 and OGT
[4] = molecular target: T1, FLAG-mTET2-N1041 (mouse); assay: as above
[5] = molecular target: T2, FLAG-mTET2-N500 (mouse); assay: as above
[6] = molecular target: FLAG-HA-NeonGreen-PROSER1 (human (endogenous in HEK293)) (UniProt Q86XN7); assay: co-IP; FHNG-PROSER1 knock-in HEK293 cells transiently transfected with FLAG-tagged mouse TET2 constructs; HA IP from total cell lysates, FLAG Western blot
[7] = molecular target: FLAG-HA-NeonGreen-PROSER1 (human (endogenous in HEK293)) (UniProt Q86XN7); assay: co-IP; FLAG IP from nuclear extracts of FHNG-PROSER1 knock-in HEK293 cells, Western blot; wild-type HEK293 cells as IP control
[8] = molecular target: FLAG-UTX (UniProt O15550); assay: co-IP; FLAG IP from nuclear extracts of FLAG-UTX HEK293 cells, Western blot; cells with a FLAG-tag expressing plasmid as IP control; remark: listed apart in the source
[9] = molecular target: TET2 (human (endogenous in HEK293)) (UniProt Q6N021); assay: co-IP; IP of endogenous TET2 (TET2 antibody, Dynabeads Protein G) from nuclear extracts of WT and PROSER1 KO HEK293 cells, Western blot
[10] = molecular target: FLAG-PROSER1 (UniProt Q86XN7); assay: co-IP; FLAG IP from nuclear extracts of FLAG-PROSER1 HEK293 cells, Western blot; cells with a FLAG-tag expressing plasmid as IP control

binding [3]	binding [4]	binding [5]	binding [6]	Molecule	also measured
–	–	–	–	RBBP5 (from UniProt Q15291 1-538)	binding [1]: binds; binding [2]: binds
binds	no binding	no binding	–	PROSER1 (from UniProt Q86XN7 1-944)	–
–	–	–	no binding	FLAG-mTET2-N500 (domain or fragment, UniProt Q4JK59 1-500) MEQDRTTHAEGTRLSPFLIAPPSPISHTEPLAVKLQNGSPLAERPHPEVNGDTKWQSSQSCYGISHMKGSQSSHESPHEDRGYSRCLQNGGIKRTVSEPSLSGLHPNKILKLDQKAKGESNIFEESQERNHGKSSRQPNVSGLSDNGEPVTSTTQESSGADAFPTRNYNGVEIQVLNEQEGEKGRSVTLLKNKIVLMPNGATVSAHSEENTRGELLEKTQCYPDCVSIAVQSTASHVNTPSSQAAIELSHEIPQPSLTSAQINFSQTSSLQLPPEPAAMVTKACDADNASKPAIVPGTCPFQKAEHQQKSALDIGPSRAENKTIQGSMELFAEEYYPSSDRNLQASHGSSEQYSKQKETNGAYFRQSSKFPKDSISPTTVTPPSQSLLAPRLVLQPPLEGKGALNDVALEEHHDYPNRSNRTLLREGKIDHQPKTSSSQSLNPSVHTPNPPLMLPEQHQNDCGSPSPEKSRKMSEYLMYYLPNHGHSGGLQEHSQYLMGH	–
binds	no binding	no binding	–	OGT (enzyme, UniProt O15294 1-1046) MASSVGNVADSTEPTKRMLSFQGLAELAHREYQAGDFEAAERHCMQLWRQEPDNTGVLLLLSSIHFQCRRLDRSAHFSTLAIKQNPLLAEAYSNLGNVYKERGQLQEAIEHYRHALRLKPDFIDGYINLAAALVAAGDMEGAVQAYVSALQYNPDLYCVRSDLGNLLKALGRLEEAKACYLKAIETQPNFAVAWSNLGCVFNAQGEIWLAIHHFEKAVTLDPNFLDAYINLGNVLKEARIFDRAVAAYLRALSLSPNHAVVHGNLACVYYEQGLIDLAIDTYRRAIELQPHFPDAYCNLANALKEKGSVAEAEDCYNTALRLCPTHADSLNNLANIKREQGNIEEAVRLYRKALEVFPEFAAAHSNLASVLQQQGKLQEALMHYKEAIRISPTFADAYSNMGNTLKEMQDVQGALQCYTRAIQINPAFADAHSNLASIHKDSGNIPEAIASYRTALKLKPDFPDAYCNLAHCLQIVCDWTDYDERMKKLVSIVADQLEKNRLPSVHPHHSMLYPLSHGFRKAIAERHGNLCLDKINVLHKPPYEHPKDLKLSDGRLRVGYVSSDFGNHPTSHLMQSIPGMHNPDKFEVFCYALSPDDGTNFRVKVMAEANHFIDLSQIPCNGKAADRIHQDGIHILVNMNGYTKGARNELFALRPAPIQAMWLGYPGTSGALFMDYIITDQETSPAEVAEQYSEKLAYMPHTFFIGDHANMFPHLKKKAVIDFKSNGHIYDNRIVLNGIDLKAFLDSLPDVKIVKMKCPDGGDNADSSNTALNMPVIPMNTIAEAVIEMINRGQIQITINGFSISNGLATTQINNKAATGEEVPRTIIVTTRSQYGLPEDAIVYCNFNQLYKIDPSTLQMWANILKRVPNSVLWLLRFPAVGEPNIQQYAQNMGLPQNRIIFSPVAPKEEHVRRGQLADVCLDTPLCNGHTTGMDVLWAGTPMVTMPGETLASRVAASQLTCLGCLELIAKNRQEYEDIAVKLGTDLEYLKKVRGKVWKQRISSPLFNTKQYTMELERLYLQMWEHYAAGNKPDHMIKPVEVTESA	binding [7]: binds; binding [8]: binds; binding [9]: binds; binding [10]: binds
–	–	–	no binding	FLAG-mTET2-N1041 (domain or fragment, UniProt Q4JK59 1-1041) MEQDRTTHAEGTRLSPFLIAPPSPISHTEPLAVKLQNGSPLAERPHPEVNGDTKWQSSQSCYGISHMKGSQSSHESPHEDRGYSRCLQNGGIKRTVSEPSLSGLHPNKILKLDQKAKGESNIFEESQERNHGKSSRQPNVSGLSDNGEPVTSTTQESSGADAFPTRNYNGVEIQVLNEQEGEKGRSVTLLKNKIVLMPNGATVSAHSEENTRGELLEKTQCYPDCVSIAVQSTASHVNTPSSQAAIELSHEIPQPSLTSAQINFSQTSSLQLPPEPAAMVTKACDADNASKPAIVPGTCPFQKAEHQQKSALDIGPSRAENKTIQGSMELFAEEYYPSSDRNLQASHGSSEQYSKQKETNGAYFRQSSKFPKDSISPTTVTPPSQSLLAPRLVLQPPLEGKGALNDVALEEHHDYPNRSNRTLLREGKIDHQPKTSSSQSLNPSVHTPNPPLMLPEQHQNDCGSPSPEKSRKMSEYLMYYLPNHGHSGGLQEHSQYLMGHREQEIPKDANGKQTQGSVQAAPGWIELKAPNLHEALHQTKRKDISLHSVLHSQTGPVNQMSSKQSTGNVNMPGGFQRLPYLQKTAQPEQKAQMYQVQVNQGPSPGMGDQHLQFQKALYQECIPRTDPSSEAHPQAPSVPQYHFQQRVNPSSDKHLSQQATETQRLSGFLQHTPQTQASQTPASQNSNFPQICQQQQQQQLQRKNKEQMPQTFSHLQGSNDKQREGSCFGQIKVEESFCVGNQYSKSSNFQTHNNTQGGLEQVQNINKNFPYSKILTPNSSNLQILPSNDTHPACEREQALHPVGSKTSNLQNMQYFPNNVTPNQDVHRCFQEQAQKPQQASSLQGLKDRSQGESPAPPAEAAQQRYLVHNEAKALPVPEQGGSQTQTPPQKDTQKHAALRWLLLQKQEQQQTQQSQPGHNQMLRPIKTEPVSKPSSYRYPLSPPQENMSSRIKQEISSPSRDNGQPKSIIETMEQHLKQFQLKSLCDYKALTLKSQKHVKVPTDIQAAESENHARAAEPQATKSTDCSVLDDVSESDTPGE	–
